Columns and labels:
[1] = biological target: T1, c-MET on the surface of Hcc827 or Hcc827-GR6 cells (human, UniProt P08581); experiment: flow cytometry on Hcc827-GR6 cells, one-site total binding fit
T1 construct: whole, on cells; The cells express the receptor endogenously, and MET is amplified in Hcc827-GR6; also called cell surface MET
Experimental: (§1) The affinities of the cys-diabodies were evaluated by flow cytometry. Serial diluted cys-diabodies were incubated with Hcc827-GR6 cells at 4 degrees for 2 hours. The cys-diabodies were detected with 1/100 mouse anti-c-Myc antibody (Sigma, Cat# M4439) and stained with 1/100 PE or FITC conjugated goat anti mouse IgG polyclonal antibody (Jackson ImmunoResearch) in flow buffer.
(§2) The affinity of these 3 cys-diabodies were evaluated by flow cytometry. The concentrations of the purified proteins were determined by their A280, measured with Nanodrop 2000 (Thermal Scientific), and their calculated extinction coefficient (ProtParam tool, expasy.org). The binding curve was fitted with one-site total binding model by GraphPad Prism.

[2] = biological target: T1, c-MET on the surface of Hcc827 or …; experiment: flow cytometry binding curve on cells (the sheet does not name them; paragraph 217: Hcc827 GR6 cell line)
Experimental: as §1, §2

[3] = biological target: T1, c-MET on the surface of Hcc827 or …; experiment: phage flow cytometry on Hcc827-GR6 cells, bound phage detected with FITC anti-M13 antibody
Experimental: For phage antibodies, flow cytometry was used to confirm their binding to c-MET expressing cells. Bacteria culture containing phage was concentrated 30 times into PBS according to published method (Antibody Engineering Methods and Protocols, Benny K. C. Lo). $2 \sim 5 \times 10^5$ c-MET positive Hcc827 or Hcc827-GR6 cells (Engelman et. al, Science, 2007) were incubated with 100 ul concentrated phage and 30 ul 4% milk-PBS on ice for 1 hour. Cells were then washed using flow buffer (PBS, 1% FBS, 2 mM EDTA), and the binding phage antibodies were detected by FITC conjugated anti-M13 monoclonal antibody (Santa Cruz Biotechnology, Cat# sc-53005 Fitc).

T1 sequence (P08581 25-1390): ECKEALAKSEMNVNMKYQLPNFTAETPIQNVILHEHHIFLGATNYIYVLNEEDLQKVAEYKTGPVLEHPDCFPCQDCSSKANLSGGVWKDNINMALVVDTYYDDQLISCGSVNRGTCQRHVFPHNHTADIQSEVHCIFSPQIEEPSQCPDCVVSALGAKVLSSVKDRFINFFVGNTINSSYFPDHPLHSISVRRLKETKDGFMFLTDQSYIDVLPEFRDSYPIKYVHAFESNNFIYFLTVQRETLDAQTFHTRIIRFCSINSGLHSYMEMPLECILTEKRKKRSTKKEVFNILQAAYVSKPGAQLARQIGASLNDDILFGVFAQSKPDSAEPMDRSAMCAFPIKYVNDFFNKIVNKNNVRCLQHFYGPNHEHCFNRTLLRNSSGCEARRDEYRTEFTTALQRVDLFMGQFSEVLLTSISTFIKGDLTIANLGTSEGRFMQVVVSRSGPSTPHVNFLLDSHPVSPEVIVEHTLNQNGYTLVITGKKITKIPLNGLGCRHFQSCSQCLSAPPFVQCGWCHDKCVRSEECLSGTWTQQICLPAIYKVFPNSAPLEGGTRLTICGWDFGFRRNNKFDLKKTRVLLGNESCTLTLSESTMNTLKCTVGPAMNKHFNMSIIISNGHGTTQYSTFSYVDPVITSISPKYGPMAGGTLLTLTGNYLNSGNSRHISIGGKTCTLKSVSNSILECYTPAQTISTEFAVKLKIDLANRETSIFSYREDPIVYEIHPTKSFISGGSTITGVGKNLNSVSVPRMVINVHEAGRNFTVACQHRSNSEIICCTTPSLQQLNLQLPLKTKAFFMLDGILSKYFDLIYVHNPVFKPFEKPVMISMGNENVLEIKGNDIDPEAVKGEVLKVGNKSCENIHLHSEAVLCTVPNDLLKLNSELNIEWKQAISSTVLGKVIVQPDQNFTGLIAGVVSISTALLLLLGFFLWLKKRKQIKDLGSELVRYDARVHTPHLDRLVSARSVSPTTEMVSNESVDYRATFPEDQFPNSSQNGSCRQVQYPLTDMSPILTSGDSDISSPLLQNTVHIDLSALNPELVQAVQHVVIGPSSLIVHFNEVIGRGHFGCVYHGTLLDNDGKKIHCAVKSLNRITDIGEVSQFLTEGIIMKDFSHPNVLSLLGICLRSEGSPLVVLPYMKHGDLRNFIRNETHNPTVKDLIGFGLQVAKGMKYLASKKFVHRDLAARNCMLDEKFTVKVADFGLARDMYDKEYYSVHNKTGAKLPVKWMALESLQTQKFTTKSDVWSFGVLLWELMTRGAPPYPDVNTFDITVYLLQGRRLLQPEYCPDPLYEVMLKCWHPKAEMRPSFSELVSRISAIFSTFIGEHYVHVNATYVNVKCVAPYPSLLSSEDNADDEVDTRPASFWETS

B1: H2 cys-diabody (other)
chain: [about 100 residues not shown]EGGKWYYGMDVWGRGTLVTVSSGGGGGSSSELTQDPAVSVALGQTVRITCQGDSLRSYYTNWFQQKPGQAPLLVVYAKNKRPSGIPDRFSGSGSGDTASLTITGAQAEDEADYYCNSRDSSGNYLFAAGTKLTVLGAAAEQKLISEEDLNGAAHHHHHHC
notes: Expressed in E. coli and purified through the His tag; also called H2 diabody
- Kd [1]: 0.61 nM
- Kd [2]: 0.6 nM

B2: H2 ScFv antibody (phage-displayed) (scFv)
scFv: [about 100 residues not shown]EGGKWYYGMDVWGRGTLVTVSSGGGGGSGGGGSGGGGSSSELTQDPAVSVALGQTVRITCQGDSLRSYYTNWFQQKPGQAPLLVVYAKNKRPSGIPDRFSGSGSGDTASLTITGAQAEDEADYYCNSRDSSGNYLFAAGTKLTVLG
notes: The fusion to the phage coat protein is not described
- binding result [3]: binds
